# Reference: PubChem BioAssay AID1745853 (National Center for Advancing Translational Sciences (NCATS), 2022)
# Some of the results follow. Shown are side measurements of this screen, not its main read-out; they come without a call.
# Columns and labels:
# Assay in all cases: Primary Screen for Target Class Profiling of Small Molecule Inhibitors of Methyltransferases
# [1] = target: Glycine N-methyltransferase (Homo sapiens) (UniProt Q14749); conditions: purified enzyme, MTase-Glo SAH luminescence; measured here: GNMT inhibition; at 40 µM; stronger effect = lower value
# In short: (§1)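 Each enzyme was assayed with SAM and its substrate. SAH formation detected by MTase-Glo luminescence; single-point 40 uM screen[…].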
# [2] = target: Guanidinoacetate N-methyltransferase (Homo sapiens) (UniProt Q14353); conditions: purified enzyme, MTase-Glo SAH luminescence; measured here: GAMT inhibition; at 40 µM; stronger effect = lower value
# In short: as §1
# [3] = target: Histamine N-methyltransferase (Homo sapiens) (UniProt P50135); conditions: purified enzyme, MTase-Glo SAH luminescence; measured here: HNMT inhibition; at 40 µM; stronger effect = lower value
# In short: as §1
# [4] = target: Nicotinamide N-methyltransferase (Homo sapiens) (UniProt P40261); conditions: purified enzyme, MTase-Glo SAH luminescence; measured here: NNMT inhibition; at 40 µM; stronger effect = lower value
# In short: as §1
# [5] = target: Phenylethanolamine N-methyltransferase (Homo sapiens) (UniProt P11086); conditions: purified enzyme, MTase-Glo SAH luminescence; measured here: PNMT inhibition; at 40 µM; stronger effect = lower value
# In short: as §1
# % is scaled to controls: 0 for no effect and ±100 for the full control effect.
Structure (SMILES),"activity change, negative = inhibition [1] [%]","activity change, negative = inhibition [2] [%]","activity change, negative = inhibition [3] [%]","activity change, negative = inhibition [4] [%]","activity change, negative = inhibition [5] [%]"
COc1cccc(CNS(=O)(=O)c2cc3[nH]c(=O)[nH]c3cc2C)c1,14.5,4.48,12.3,2.14,6.68
CC(C)(C)OC(=O)N1CCC(OCc2nc(-c3ccncc3)no2)CC1,3,0.523,1.66,-12.8,-5.5
CN1C(=O)c2cc(C(=O)NC3CCCCCC3)nn2CC1(C)C(=O)NC1CCCC1 (configuration not stated),2.54,1.04,-0.427,2.37,1.83
CCCn1c(=O)c2ccccc2n2c(=O)n(CC(=O)Nc3cc(OC)cc(OC)c3)nc12,5.43,0.837,10.2,0.556,2.89
CC(C)NC(=O)c1ccc2c(=O)n(C(C)C)c3nn(CC(=O)N(C)c4ccccc4)c(=O)n3c2c1,6.39,1.98,2.45,0.441,5.45
COCc1nc(NCCCN2CCOCC2)cc(C2CC(N)C2)n1 (configuration not stated),-2.26,-3.72,-2.75,-7.11,-5.59
Cn1cnc([N+](=O)[O-])c1Sc1ncnc2nc[nH]c12,3.91,3.09,10.9,-3.72,6.03
N#Cc1cccc(CN2CC[C@H](c3nc4ccccc4o3)C2)c1,-6.9,-2.6,-3.09,-3.86,-8.47
Cn1cc(CCn2cnc(-c3cnn(C)c3)c2-c2ccc(C#N)cc2)cn1,5.79,4.56,-8.03,-6.79,2.48
COC1C(=O)N(CC2CC2)C12CCN(S(=O)(=O)c1ccc3c(c1)OCCO3)CC2 (configuration not stated),-1.65,-1.76,-1.2,-38.4,-1.33
O=C(CCc1nnc2n(Cc3ccccc3)c(=O)c3ccccc3n12)N1CCN(c2cccc(Cl)c2)CC1,-4.83,2.44,6.97,1.86,2.29
COc1ccc(-c2nc3cc(C(=O)NCC(C)C)ccc3o2)cn1,-5.86,-8.8,-3.4,-11.7,3.86
c1cc(-c2nc(C3CCOC3)nn2C2CCCCC2)co1 (configuration not stated),-3.8,-3.58,-0.954,-7.8,-10
CC(C)N1C(=O)c2cc3occc3n2CC1(C)C(=O)NC1CCCCCCC1 (configuration not stated),-7,1.57,-3.47,-4.96,-5.24
CC(C)C1=NOC2(CCCN(C(=O)c3ccccn3)C2)C1 (configuration not stated),1.12,1.32,1.96,0.458,0.703
CCc1ccc(CNC(=O)Cn2ccc3cc(S(=O)(=O)N4CCC(C)CC4)ccc32)cc1,-0.486,3.62,-1.55,-0.674,0.518
COC(=O)c1cc2n(n1)CC(C)(C(=O)NC1CCCCCC1)N(c1ccccc1C)C2=O (configuration not stated),-3.33,-0.114,-4.31,-16,-7.57
Cc1ccc(-c2cc(C(=O)Nc3ccc4c(c3)C(=O)N(C)C3=NCCN34)c3ccccc3n2)cc1C,-9.51,-3.77,-5.53,-7.13,-6.98
CCc1cccc(NC(=O)Cn2nc3n(C)c(=O)c4ccc(C(=O)NC5CCCCC5)cc4n3c2=O)c1,3.06,6.29,5.3,2.16,0.122
O=C(c1cnc2c(c1)CCCC2)N1CCCn2nc(CO)cc2C1,-6.04,-4.42,-4.4,-6.11,-4.98

Structure (SMILES),"activity change, negative = inhibition [1] [%]","activity change, negative = inhibition [2] [%]","activity change, negative = inhibition [3] [%]","activity change, negative = inhibition [4] [%]","activity change, negative = inhibition [5] [%]"
COc1cccc(CN2C(=O)c3cc(-c4ccccc4)nn3CC2(C)C(=O)NCc2ccccc2)c1OC (configuration not stated),-0.765,0.524,-0.823,-6.92,-2.96
C=C1C[C@@]23CC[C@H]4[C@@](C)(CCC[C@@]4(C)C(=O)OC4OC(CO)C(O)C(O)C4O)[C@@H]2CC[C@]1(OC1OC(CO)C(O)C(O)C1OC1OC(CO)C(O)C(O)C1O)C3 (some centres not stated),-5.98,1.15,-2,-9.94,2.04
CCn1c(=O)sc2cc(NS(=O)(=O)c3ccc4c(c3)n(C)c(=O)n4C)ccc21,1.46,0,8.04,-2.68,2.93
O=C(NC1CCCCCC1)c1nnn2cc(-c3ccccc3)[nH]c(=O)c12,-27.8,-4.61,-32.1,-20.2,9.28
CN(Cc1cccc(C(F)(F)F)c1)Cc1nc(-c2ccccc2)no1,-1.87,4.33,4.49,-1.39,-10.6
Cc1nnc([C@H]2CCN(Cc3ncc[nH]3)C2)o1,-0.624,-0.855,1.11,-0.993,-2.29
CN(C(=O)Cn1c(=O)oc2cc(S(=O)(=O)N3CCCC3)ccc21)c1ccc(Br)cc1,14.8,0,12.7,-0.758,4.99
CCOC(=O)[C@H]1C[C@]2(CCCCNC2=O)N(C(=O)c2cccc(OC)c2)[C@H]1c1ccco1,-1.24,1.66,2.08,-2.49,-4.51
CN(C)C(=O)/N=N/C(=O)N(C)C,-47.1,5.58,0.603,-3.59,4.93
Cc1ccccc1CN1C(=O)c2cc(C3CC3)nn2CC1(C)C(=O)NC1CCCCCC1 (configuration not stated),-3.53,1.18,-1.66,-16.3,1.17
C=C1C(=O)O[C@@H]2[C@H]1CC(=O)[C@H](C)[C@@](O)(C(=O)/C=C/C)[C@H]2OC(=O)C(C)CC (some centres not stated),0,7.15,0.459,-3.6,4.55
Cc1c(C(=O)N(C)Cc2cc(-c3cccnc3)no2)oc2c(F)cccc12,-17.3,-2.21,-1.89,-12.3,-6.18
CC1(C(=O)NC2CCCCCC2)Cn2c(c(-n3cccc3)c3cc(F)ccc32)C(=O)N1Cc1ccco1 (configuration not stated),-14.4,3.19,-9.55,-17.2,-5.49
CCOC(=O)Cc1ccc(NC(=O)N2CCn3cccc3C2C)cc1 (configuration not stated),-7.74,0.679,-4.09,-11.5,-6.36
COc1cccc(N2C(=O)NC(=NC3CCCCC3)C23CCCN([S+](=O)([O-])c2cccs2)C3)c1 (configuration not stated),-10.1,-9.63,-6.54,-27.6,-22.7
COc1ccc(-c2ncccc2CNS(=O)(=O)c2ccc(C#N)cc2)cc1,4.4,1.28,3.5,1.43,3.08
C=CCn1c(=O)c2ccc(C(=O)NC(C)C)cc2n2c(=O)n(CC(=O)NC3CCCC3)nc12,-0.214,1.13,2.74,-8.52,1.42
O=C1CCCCC(Cc2cccnc2)(C(=O)NCC2CC2)N1 (configuration not stated),-0.435,-1.31,1.3,-0.853,-2.87
O=C(c1ccsc1)N1CCC2(CC1)CN(c1ccncn1)CC2CO (configuration not stated),-0.568,2.87,-1.22,-0.398,2.11
CCCn1c(=O)c2ccccc2n2c(SCC(=O)Nc3ccc(CC)cc3)nnc12,-4.04,2.02,7.47,2.87,4

Structure (SMILES),"activity change, negative = inhibition [1] [%]","activity change, negative = inhibition [2] [%]","activity change, negative = inhibition [3] [%]","activity change, negative = inhibition [4] [%]","activity change, negative = inhibition [5] [%]"
CCC1C(=O)N(C)c2cnc(Nc3ccc(C(=O)NC4CCC(N5CCN(CC6CC6)CC5)CC4)cc3OC)nc2N1C(C)C (configuration not stated),-29.5,,-37.4,,
COCCOCc1nc(C2CCCN2C(=O)Cc2cccc(F)c2)no1 (configuration not stated),-2.41,-3.11,2.01,-6.54,-1.79
CCc1ccc(NC(=O)Cn2c(=O)c3cc(Cl)ccc3n3nncc23)cc1,-4.38,0,7.04,-5.61,0.612
COC(=O)C1=CO[C@@H](O[C@@H]2O[C@H](CO)[C@@H](O)[C@H](O)[C@H]2O)[C@H]2[C@@H]1[C@H](O)[C@H](O)[C@]2(C)O,7.67,9.33,12.8,-1.48,8.99
COc1ccccc1CN1C(=O)c2cc3ccccc3n2CC1(C)C(=O)NCCCOC(C)C (configuration not stated),4.88,0.365,8.61,7.62,1.48
C=C1CC23CC1(O)CCC2C1=CC2OC(=O)C(C)(C2O)C1C3C(=O)O (configuration not stated),-1.37,-1.64,5.63,-10.8,-1.2
Cc1[nH]c2ccccc2c1CN1CCc2nc(N3CCN(C)CC3)[nH]c(=O)c2CC1,-4.15,-0.285,-20.5,-4.2,2.98
Nc1cc(Cl)c(NC2=NCCN2)c(Cl)c1,1.64,12.8,6.25,-6.26,3.88
O[C@H]1CC[C@@H](Cc2cc(-c3ccc(F)cc3)on2)O[C@@H]1CNC1CCCCC1,-10.8,-9.47,-9.44,-23.8,-36.2
O=c1c2ccccc2n2c(=O)n(Cc3ccc(F)cc3)nc2n1CCc1ccccc1,2.23,0,9.89,6.07,2.18
COc1ccc(NC(=O)Cn2c(=O)oc3cc(S(=O)(=O)N4CCCC4)ccc32)cc1Cl,0.373,5.27,8.91,6.13,-26.4
COc1ccc(/C=C/C(=O)O[C@@H]2[C@@H](O)[C@H](C)O[C@@H](O[C@H]3[C@@H]4C=CO[C@@H](O[C@H]5O[C@@H](CO)[C@H](O)[C@@H](O)[C@@H]5O)[C@@H]4[C@@]4(CO)O[C@@H]34)[C@@H]2OC(C)=O)cc1,-0.911,3.95,5.84,-8.68,3.03
COc1ccc(CN2C(=O)c3cc4occc4n3CC2(C)C(=O)NC2CCCCCCC2)cc1 (configuration not stated),-7.68,3.16,-1.46,-14.9,-1.93
COc1ccc(-c2n[nH]n3c2nc(=O)c2ccc(C(=O)NCc4ccc(OC)c(OC)c4)cc23)cc1,-32.8,3.92,7.03,6.05,-0.241
CC1(C(=O)NC2CCCCCCC2)Cn2c(ccc2-c2ccco2)C(=O)N1CCc1ccccc1 (configuration not stated),-8.17,3.14,-3.63,-10.4,-7.52
Cc1cccc(Cn2nc3n(C)c(=O)c4ccc(C(=O)NC5CCCC5)cc4n3c2=O)c1,-1.79,5.06,9.35,-5.96,-1.96
CCOC(=O)C(C)Oc1cc2oc(=O)cc(-c3ccccc3)c2cc1Cl (configuration not stated),-8.62,0.774,1.38,-2.01,-5.57
COc1ccc(-n2c(SCCCN3C(=O)c4cccc5cccc(c45)C3=O)nnc2-c2ccncc2)cc1,1.91,3.92,8.78,-31.1,-2.65
CCOc1ccc(CCNC(=O)CCn2ccc3cc(S(=O)(=O)N4CCCC4)ccc32)cc1,-3.11,4.16,-0.264,-3.83,-1.56
